Reference: paper PMC12136788
The list shows a part of the results.

B1: chr10:41618152:41618153:+_ENSMUSG00000038332_ENSMUST00000041438|mus_mus|motif|central (ssRNA)
RNA: GGGAGUUCUACAGUCCGACGAUCUUGCAUCUCAUCCACACUGUGAUUGCCAUUUGUAAUGUCACAGAUGCAGUAGUUACGGACAGAAGGCGGUCUGAAGGUGUGGCCACCAUCGCAAUGAAUCUCUGGACUAAUUCCACAGCCCAACAGAGGAUUGAGCAUCA
B2: chr18:70676519:70676520:-_ENSMUSG00000038425_ENSMUST00000161542|mus_hu|FALSE|FALSE (ssRNA)
RNA: GGGAGUUCUACAGUCCGACGAUCGCGUGAAGUAGUUGAUAAUGAUGGCAUUAAAUAAUAAUCAAUAAGCCCUUUCUUAGCAGUAUUUAGUGCUUUAAGGUUGCAGAAGCACACACUUAGAAGGGUAAGGUGAAAUGGCAUCUUCAACAGAGGAUUGAGCAUCA
B3: chr5:144009550:144009551:+_ENSMUSG00000029587_ENSMUST00000032591|mus_mus|motif|central (ssRNA)
RNA: GGGAGUUCUACAGUCCGACGAUCCAUCCAAAUUUACAGACAAUAAAUCUCUCUAUUGACACAUCAAAAUAAAUGAUUUCCGGAAUUCCACUUCUGAAUUGCAUAACUCCUACAGAGUGUAAUGGGGCACCAGGCUGUCCUGUUCAACAGAGGAUUGAGCAUCA
B4: chr17:24832259:24832260:-_ENSMUSG00000040888_ENSMUST00000046839|mus_hu|FALSE|FALSE (ssRNA)
RNA: GGGAGUUCUACAGUCCGACGAUCUCUUAGGUCUUCAGCACACUCCUCACAGGGGUAAAACUUAGAAAAUAAAUGUAUGAACUGGGCCAUGUCUUGCUGCUGUUCUGGGGUGGGCAGGUCGGGGUAGUAGGCGGCCAGGGUGUGCAACAGAGGAUUGAGCAUCA
B5: 79826794_79826914_537_CDS_ENSMUSG00000043881_ENSMUST00000061222|mouse|control|control (ssRNA)
RNA: GGGAGUUCUACAGUCCGACGAUCCACCAAGACCUCGAAGGACUCGGCAUCCACGUCGUGGAUCGUCACGCUGGCCUGCUGGCUCUCGUACAUGCCCCCCGUGAACAUGCUCUUGAAGUAGGGGCAAGCGGCCGCCAGCACGUUCAACAGAGGAUUGAGCAUCA
B6: chr18:56819859:56819860:+_ENSG00000166562_ENST00000588875|hu_mus|hu_hu_hu_mus_True|88_88 (ssRNA)
RNA: GGGAGUUCUACAGUCCGACGAUCAACCUUGAUUACUCUGUGAACUAUUGGAAUGUCUCUUCCUUCAACCUUAAAAACAACUAUUUCACCAGCUCUGAUGGGGUCCUCCCGGAAAUUCGUGAGGAACAGCAGAUCUCCUCUGUGCAACAGAGGAUUGAGCAUCA
B7: chr12:48362563:48362564:+_ENSG00000134291_ENST00000256686|hu_hu|hu_hu_hu_mus_False|28_48 (ssRNA)
RNA: GGGAGUUCUACAGUCCGACGAUCUCCGUCAAGCCCUUCGAUAGACCCUUGCGGGGGAAACUGUAAUCACUUUGUAUGGGGAAGGAAAAAAAAAGCCAAAAACUUUCUUUCUUUCUUGGGUGGGGUGAGGCGGGAGGGGGAGGUCAACAGAGGAUUGAGCAUCA
B8: chr10:59467614:59467615:+_ENSMUSG00000044475_ENSMUST00000050516|mus_hu|FALSE|FALSE (ssRNA)
RNA: GGGAGUUCUACAGUCCGACGAUCGAAGUCCUCUUCAUCUUCUUCAUGUUGAUAGGUCUGUUCUUGGACUGGAUUCUUCCUGUAAUUCCGGCCAUCAAUUCUUAUAAGCUGUGGACGCAGAACUUCCAUGACACUUUCUCCAAACAACAGAGGAUUGAGCAUCA
B9: 153399267_153405588_643_CDS_ENSG00000157827_ENST00000288670|human|control|control (ssRNA)
RNA: GGGAGUUCUACAGUCCGACGAUCAAUUUCCAGUUCUCUUAGCACUUGUGUAGAUUCUUGAACACGCCGUCUGAAUUUCUUCCUGGUUACAGCUGGAUCCAGAUAGCCUUUGAGCUUUUGAAUGUAUGUAUGGGGAGGAUUCUUCAACAGAGGAUUGAGCAUCA
B10: chr8:106942660:106942661:-_ENSMUSG00000035770_ENSMUST00000041769|mus_mus|FALSE|FALSE (ssRNA)
RNA: GGGAGUUCUACAGUCCGACGAUCCUUUUGUAUCAAGGUUUCAAAAUCACACUAUUAGGCAGUGUCUUUGCAAGAAUUCCUAGUUUCUGAGGUCAUUCACUUUGCCCUGGCUGCUACGGAGAUCAGUUGACCCUCCAUCAUGGUCAACAGAGGAUUGAGCAUCA
B11: chr5:152452566:152452567:-_ENSMUSG00000033970_ENSMUST00000038131|mus_hu|FALSE|FALSE (ssRNA)
RNA: GGGAGUUCUACAGUCCGACGAUCUUCACGUAGAAUACACAUAAUUCUUGUCUUUUUUCCAGCACCUGAUGGUCCGUACACUAACAGAUGAGGAAAGUCACCACACUGCACCAGGUUCCGCAGCUGGGCCGCCUGCUCCUUGUGCAACAGAGGAUUGAGCAUCA
B12: chr2:135883765:135883766:+_ENSG00000115839_ENST00000442034|hu_mus|motif|central (ssRNA)
RNA: GGGAGUUCUACAGUCCGACGAUCAGAAUAAACAUCAUUAUCUACAAUGAUCCCUUCUGUCAAAUGAGGCCACGUUGUUGCGGAAUGGAGUUCACUGAUAGGAUCUUCACAGGCACCAAAUGGCAACUUGCCGAACUCCAGGCCCAACAGAGGAUUGAGCAUCA
B13: chr11:100452292:100452293:-_ENSMUSG00000014195_ENSMUST00000014339|perfect_dup|FALSE|FALSE (ssRNA)
RNA: GGGAGUUCUACAGUCCGACGAUCCAUUUGUUUUUAUAUUGUUGGGGUCUAUCCCCAGGGCUUCUGUGUACAGUUCAUAUGCUAGUUUGUAAUUUCCUUCCUUAAAUGCUUUAUUCCCAUCUUCUUUCUUUGCUUUGAGUGCUUCAACAGAGGAUUGAGCAUCA
B14: 83126042_83126162_1279_3pUTR_ENSMUSG00000058881_ENSMUST00000071233|mouse|control|control (ssRNA)
RNA: GGGAGUUCUACAGUCCGACGAUCGUCCUCUGAGUCCCCCUCCUCAGCCGGGGCUCGAAUCCGGCUGGCUUCAACUUUACGGUGUAUGGCGUUAUGGGCGUUCAAGCUGUCCAGGUUUGUAAACAGGUUCCCGCACUUUGUGCACAACAGAGGAUUGAGCAUCA
B15: 52727232_52727430_1307_CDS_ENSG00000163938_ENST00000418458|human|control|control (ssRNA)
RNA: GGGAGUUCUACAGUCCGACGAUCUGAGGCACCUGUCCACUCAGACCACAGCAGUUUGGCAGCACCUUCAACAUUUGGGAUUCCACCUUUUUGGUGCAUACCUCUUCUCUGAGCAAGCACAGUAAAAAAUUCCAGAGAAUUCCUCAACAGAGGAUUGAGCAUCA
B16: chr1:80263381:80263382:-_ENSMUSG00000004364_ENSMUST00000163119|mus_mus|motif|central (ssRNA)
RNA: GGGAGUUCUACAGUCCGACGAUCAAUUUUGCAUCUCUUUUGCCAUUUUUGCUACCCAACUUACACAAUGCGCAAAGUGCGGAUAAGCAACACUACAGAAACACAUUUACAUCAACACUGAAGACCUGGGGAAAUGAAAUCCAACAACAGAGGAUUGAGCAUCA
B17: chr1:225611761:225611762:-_ENSG00000143815_ENST00000272163|hu_mus|hu_hu_hu_mus_True|1_48 (ssRNA)
RNA: GGGAGUUCUACAGUCCGACGAUCCCAGGCCAUCGGCCUCUGACCACUUCACCCUCAACAAACUUCCUACUUGGCAUUUUCUAAAAUUAACCUGCGCGCGCUCCGGCGGGAACUCCAGCCACUCCAGGACAGUCACCCGCACAGCAACAGAGGAUUGAGCAUCA
B18: chr5:37310712:37310713:-_ENSG00000113569_ENST00000381843|hu_mus|motif|central (ssRNA)
RNA: GGGAGUUCUACAGUCCGACGAUCACAAACUGCAUCGUCUGUGCUAUACAGAAGCGGACAGGUGUCCUGCAGAUGUAAGCGGAUGCCGUCUACGGCGGCGUUGUCUCUGAUGUAGCAGUUGAUAAGAGAAGCAAUUAAUGCUCCCAACAGAGGAUUGAGCAUCA
B19: 69484204_69485806_73_CDS_ENSMUSG00000059796_ENSMUST00000163666|mouse|control|control (ssRNA)
RNA: GGGAGUUCUACAGUCCGACGAUCGAGAUUCAUGUCAUCAAAGCUAUCCACAAUCUCGUUCCAGUUACUCUCGAUGACGCCUUCCGGCUCCAUCCCGUCGGGGCCAUUGUCUCUGGAUCGAGAAUCCUGACUCGCAGACAUGAUCAACAGAGGAUUGAGCAUCA
B20: 91746361_91746481_1453_CDS_ENSG00000001630_ENST00000003100|human|control|control (ssRNA)
RNA: GGGAGUUCUACAGUCCGACGAUCUCCAAAUGGCACAUAGGCAAACUUUUCCCCUGAUGCUGGGUUAUCCUGUAAGUAGCGAUCAGGAUUAAAGUCCAGGCGUUCUACCCAUGAGUCUUUAAGUCUUUGAUUGACAGUGGGAGACAACAGAGGAUUGAGCAUCA
B21: chr3:150289932:150289933:+_ENSG00000144895_ENST00000460851|hu_hu|hu_hu_hu_mus_False|78_98 (ssRNA)
RNA: GGGAGUUCUACAGUCCGACGAUCCUUGUAGUUUUUAACAUCCCACACUUCCAUUUGUCCCCUCAGAUUUCCAAAUCCAGCCAGCACUAAUAUAUGUCCAUGAGGGCUAUAGAAGGCUGCGUUGCGAGGACCAGUCCCAAAGUCCAACAGAGGAUUGAGCAUCA
B22: chr3:176740097:176740098:-_ENSG00000177565_ENST00000430069|hu_mus|hu_hu_hu_mus_True|8_8 (ssRNA)
RNA: GGGAGUUCUACAGUCCGACGAUCUGUUUUGUAUACCACAAAAGGAGGCACUUUCAGUAUCUGCAAAAGGUGUUUAGUCCUAAAACAUACUCACCUAGAGGAUAACUCAGGAAAACAAUCUGUUACACUAGUAUCUAUACUCCACAACAGAGGAUUGAGCAUCA

molecular target: T1, UNK ZnF1-3 (human, UniProt Q9C0B0 31-174); assay: nsRBNS (natural sequence RNA bind-n-seq); RBNS binding buffer (assumed for nsRBNS): 25 mM Tris pH 7.5, 150 mM KCl, 3 mM MgCl2, 0.01% Triton X-100, 500 ug/ml BSA, 20 U/ml SUPERase-In, 4 C; UNK is unkempt and MSI1 is Musashi-1; names of the RNAs are library labels; protein concentration not given here; high values mean tight binding
T1 sequence: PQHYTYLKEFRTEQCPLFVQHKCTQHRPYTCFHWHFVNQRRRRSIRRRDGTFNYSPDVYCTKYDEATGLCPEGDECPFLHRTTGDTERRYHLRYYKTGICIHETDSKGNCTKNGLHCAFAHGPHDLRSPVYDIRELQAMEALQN

Question: With B1 as the binder, how does the binding signal read?
Answer: 0.88 enrichment R

Question: For B2, which binding signal is on record?
Answer: 1.54 enrichment R

Question: For B3, which binding signal is on record?
Answer: 1.02 enrichment R

Question: With B4 as the binder, how does the binding signal read?
Answer: 1.56 enrichment R

Question: For B5, which binding signal is on record?
Answer: 0.534 enrichment R

Question: How did the binding signal turn out when B6 was run?
Answer: 0.697 enrichment R

Question: B7 was tested. Which binding signal did it give?
Answer: 1.54 enrichment R

Question: B8 was tested. Which binding signal did it give?
Answer: 0.492 enrichment R

Question: How did the binding signal turn out when B9 was run?
Answer: 0.616 enrichment R

Question: How did the binding signal turn out when B10 was run?
Answer: 0.691 enrichment R

Question: For B11, which binding signal is on record?
Answer: 0.825 enrichment R

Question: How did the binding signal turn out when B12 was run?
Answer: 1.27 enrichment R

Question: B13 was tested. Which binding signal did it give?
Answer: 0.338 enrichment R

Question: B14 was tested. Which binding signal did it give?
Answer: 1.01 enrichment R

Question: How did the binding signal turn out when B15 was run?
Answer: 1.28 enrichment R

Question: B16 was tested. Which binding signal did it give?
Answer: 1.35 enrichment R

Question: B17 was tested. Which binding signal did it give?
Answer: 1.4 enrichment R

Question: With B18 as the binder, how does the binding signal read?
Answer: 0.509 enrichment R

Question: B19 was tested. Which binding signal did it give?
Answer: 0.64 enrichment R

Question: B20 was tested. Which binding signal did it give?
Answer: 0.861 enrichment R

Question: How did the binding signal turn out when B21 was run?
Answer: 1.42 enrichment R

Question: For B22, which binding signal is on record?
Answer: 0.797 enrichment R
